Assay results taken from PMC6484121, “Unraveling the subtleties of β-(1→3)-glucan phosphorylase specificity in the GH94, GH149, and GH161 glycoside hydrolase families” (The Journal of Biological Chemistry, 2019).

Target: T1, TaCDP (Thermosipho africanus, UniProt B7IED6)
T1 construct: gene THA_1941
T1 sequence (B7IED6 1-1019): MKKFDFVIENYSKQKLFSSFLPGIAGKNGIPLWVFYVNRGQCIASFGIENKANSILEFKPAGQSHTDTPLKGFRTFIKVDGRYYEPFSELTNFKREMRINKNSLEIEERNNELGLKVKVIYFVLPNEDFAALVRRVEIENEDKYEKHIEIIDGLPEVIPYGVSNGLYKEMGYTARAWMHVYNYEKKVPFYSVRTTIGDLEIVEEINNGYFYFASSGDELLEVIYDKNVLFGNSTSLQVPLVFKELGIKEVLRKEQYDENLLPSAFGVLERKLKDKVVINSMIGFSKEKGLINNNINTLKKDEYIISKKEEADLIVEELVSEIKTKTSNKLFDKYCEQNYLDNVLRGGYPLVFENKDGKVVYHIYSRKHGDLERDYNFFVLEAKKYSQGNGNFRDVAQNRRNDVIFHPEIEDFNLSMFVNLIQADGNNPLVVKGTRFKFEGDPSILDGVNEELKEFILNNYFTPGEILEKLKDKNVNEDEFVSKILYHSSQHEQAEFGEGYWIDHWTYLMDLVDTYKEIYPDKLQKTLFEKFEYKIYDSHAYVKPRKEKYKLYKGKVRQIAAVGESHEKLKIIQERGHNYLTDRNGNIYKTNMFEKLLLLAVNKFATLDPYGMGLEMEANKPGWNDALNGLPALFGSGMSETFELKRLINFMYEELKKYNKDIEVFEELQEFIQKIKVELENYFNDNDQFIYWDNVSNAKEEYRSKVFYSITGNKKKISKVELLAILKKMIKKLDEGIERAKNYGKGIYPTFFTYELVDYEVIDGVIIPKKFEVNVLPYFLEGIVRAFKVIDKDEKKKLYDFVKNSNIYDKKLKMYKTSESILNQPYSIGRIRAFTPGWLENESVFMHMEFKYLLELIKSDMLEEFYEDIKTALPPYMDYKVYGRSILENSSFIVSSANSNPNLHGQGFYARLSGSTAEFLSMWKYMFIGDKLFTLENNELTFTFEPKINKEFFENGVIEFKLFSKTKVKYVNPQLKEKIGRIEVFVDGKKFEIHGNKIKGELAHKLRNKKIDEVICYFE
Experiment: TLC of phosphorolysis
Details: 20 mM laminaritriose, 10 mM Pi, 100 mM HEPES pH 7.2, 37 °C, 12 h

Structure (SMILES): OC[C@H]1O[C@@H](O[C@@H]2[C@@H](O)[C@H](O[C@H]3[C@H](O)[C@@H](CO)OC(O)[C@@H]3O)O[C@H](CO)[C@H]2O)[C@H](O)[C@@H](O)[C@@H]1O (stereo partly shown) [G3, laminaritriose]
- TLC of phosphorolysis: This showed that TaCDP was active exclusively on laminaritriose
